# Measured values published in PubChem BioAssay (NCATS).
# Values joined by “and” are separate entries in the source; they are usually repeats but may differ in a detail not shown here. Equal values may be shown once. Inconclusive means that the source gave no clear call. Such entries were picked first, then a sample of the others. Potencies of inconclusive entries are doubtful fits and often do not repeat. Active and inactive are the calls of the source. The call rests on the fitted dose curve; in most records, active means well fitted inhibition curve with a large enough effect; inconclusive means small, poorly fitted or top-dose-only effect; inactive means no such curve, though single readings can be large or run the other way. Where a SMILES comes first, the peptide text is derived from it. [ ]: non-standard residue; d: D form. The star is where a group is joined. Nva = CCC[C@H](N)C(=O)O; Cbz = O=C(OCc1ccccc1)*
# Assay: qHTS assay to identify inhibitors of the type 1 interferon - major histocompatibility complex class I in skeletal muscle: Counter screen cell viability and HiBit confirmation (AID 1347412); further: nearly all actives have a fitted effect of over 60% in size
# Settings: iHSKM muscle cells + IFN-b, HiBiT or CellTiter-Glo, 24 h; HiBiT
# Outline: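 CRISPR HLA-B*08:01-HiBit immortalized human myoblasts (C25cl48) stimulated with 4 ng/ml IFN-beta and compounds (12-point 1:3, top 46 uM final) for 24 h at 37 C. Duplicate plates read by HiBit lytic luminescence or CellTiter Glo ATP.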
# Potency means the concentration at half of the fitted maximal effect; tags describe the fitted curve by direction and shape.
row,SMILES,Potency
1,COc1ccc2c(c1)c(C1=C(c3c[nH]c4ccccc34)C(=O)NC1=O)cn2CCCN(C)C,"inconclusive: 24.9 µM [inhibitor, partial curve]"
2,CCc1c(O)cc(O)c(C(=O)c2ccc(OCCN3CCOCC3)c(OC)c2)c1CC(=O)N(CCOC)CCOC,"inconclusive: 0.496 µM [inhibitor, full curve]"
3,N#Cc1c(NC(=O)c2cccc3ccccc23)sc2c1CCCC2,"inconclusive: 1.76 µM [inhibitor, full curve]"
4,CCN(CC)CCOc1ccc(Nc2ncc3cc(-c4c(Cl)cccc4Cl)c(=O)n(C)c3n2)cc1,active: 557 nM and active: 883 nM
5,CCC[C@@H](C=O)NC(=O)[C@H](CC(C)C)NC(=O)[C@H](CC(C)C)NC(=O)OCc1ccccc1 (Cbz-Leu-Leu-[Nva]-aldehyde),"inconclusive: 12.5 µM [inhibitor, partial curve, poor fit]"
6,CCc1cc(-c2n[nH]c(C)c2-c2ccc3c(c2)OCCO3)c(O)cc1O,"inconclusive: 6.25 µM [inhibitor, partial curve]"
7,O=C1CN2Cc3c(ccc(Cl)c3Cl)N=C2N1,"inconclusive: 0.111 µM [inhibitor, full curve]"
8,O=C(Nc1cccc(Cl)c1)Nc1ncc(CCNc2ncnc3ccsc23)s1,"inconclusive: 12.5 µM [inhibitor, partial curve, poor fit]"

# Same assay, conditions: iHSKM muscle cells + IFN-b, HiBiT or CellTiter-Glo, 24 h; Viability
row,SMILES,Potency
1,COc1ccc2c(c1)c(C1=C(c3c[nH]c4ccccc34)C(=O)NC1=O)cn2CCCN(C)C,"inconclusive: 44.3 µM [cytotoxic, single point]"
2,CCc1c(O)cc(O)c(C(=O)c2ccc(OCCN3CCOCC3)c(OC)c2)c1CC(=O)N(CCOC)CCOC,"inconclusive: 14 µM [cytotoxic, partial curve, poor fit]"
3,N#Cc1c(NC(=O)c2cccc3ccccc23)sc2c1CCCC2,"inconclusive: 2.79 µM [cytotoxic, full curve, poor fit]"
4,Cc1cccc(Nc2nc(N[C@@H]3CCCC[C@H]3N)ncc2C(N)=O)c1,"inconclusive: 31.3 µM [cytotoxic, partial curve]"
5,CCN(CC)CCOc1ccc(Nc2ncc3cc(-c4c(Cl)cccc4Cl)c(=O)n(C)c3n2)cc1,active: 12.5 µM and active: 2.79 µM
6,CCC[C@@H](C=O)NC(=O)[C@H](CC(C)C)NC(=O)[C@H](CC(C)C)NC(=O)OCc1ccccc1 (Cbz-Leu-Leu-[Nva]-aldehyde),"inconclusive: 4.97 µM [cytotoxic, full curve]"
7,CN(C)CCN1C(=O)c2cccc3cc(N)cc(c23)C1=O,"inconclusive: 15.7 µM [cytotoxic, partial curve]"
8,Cc1cnc(Nc2ccc(N3CCN(C)CC3)cc2)nc1Nc1cccc(S(=O)(=O)NC(C)(C)C)c1,"inconclusive: 14 µM [cytotoxic, partial curve]"
